# In all, about 33,000 sequences were measured (“E-score (-0.5 to 0.5)”: median about -0.013, highest 2% from about 0.3 on). This is one part of the list.
# Target: T1, Msn1 (UniProt P22148)
# T1 sequence: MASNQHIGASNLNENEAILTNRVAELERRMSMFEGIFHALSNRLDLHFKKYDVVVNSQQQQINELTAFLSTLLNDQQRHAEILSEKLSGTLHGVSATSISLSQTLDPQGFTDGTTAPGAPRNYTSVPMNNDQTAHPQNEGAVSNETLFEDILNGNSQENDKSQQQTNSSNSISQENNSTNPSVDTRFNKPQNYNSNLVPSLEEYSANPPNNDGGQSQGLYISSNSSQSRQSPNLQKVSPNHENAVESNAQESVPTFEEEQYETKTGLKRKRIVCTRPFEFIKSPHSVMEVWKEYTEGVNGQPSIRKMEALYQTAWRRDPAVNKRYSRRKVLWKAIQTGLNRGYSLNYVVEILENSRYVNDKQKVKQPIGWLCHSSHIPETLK
# Assay: PBM E-score (8-mer binding enrichment) (E-score (-0.5 to 0.5)); higher = stronger / more preferred TF binding; most listed sequences are background and not binding sites
# Conditions: protein concentration: 200 nM; construct: GST-full length
# Protocol: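 Universal 'all 10-mer' protein binding microarrays (Agilent AMADID 015681) probed with GST-tagged S. cerevisiae TFs (full-length or DBD) made by in vitro transcription/translation (PURExpress), about 100-200 nM. Bound TF was detected with fluorescent anti-GST. Each ungapped 8-mer (which stands for itself and its reverse complement) is scored by the PBM enrichment score (E-score), a modified Wilcoxon-Mann-Whitney statistic from -0.5 to +0.5, computed with the Universal PBM Analysis Suite. Scale: above 0.35 generally sequence-specific binding.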
row,Sequence,PBM E-score
1,AGAAGCTA,-0.135
2,CAAGGCGG,-0.0842
3,ACGTTGAC,-0.0368
4,AATGGCAC,-0.0842
5,GCAGGTAA,0.068
6,GTCCCCAA,0.187
7,ATACCCAA,0.195
8,ATCTGCTA,-0.0771
9,GTGGTAGA,-0.219
10,AATGCGCG,0.213
11,ACACGCCT,0.162
12,CTCGCGCA,-0.0472
13,CCGCCGGC,-0.087
14,CCGTCAGA,-0.175
15,ACACAAAA,0.296
16,CTTTCCCC,-0.0808
17,ACTGAAAC,0.0672
18,ATGTTGTA,0.0647
19,AGCTGCTG,-0.049
20,ACTGTGTG,-0.0962
21,ATTTTTAC,-0.0167
22,AACCTAGT,0.0134
23,ACAGTAGT,-0.0432
24,CGTCTATA,-0.0769
25,CACGACCC,-0.304

row,Sequence,PBM E-score
1,GCGTAGAA,0.00649
2,GACCTAAC,0.127
3,AAGTGTGT,0.103
4,GGAAAGGA,0.0229
5,AACGCCGG,-0.0155
6,CTAAACGA,-0.0143
7,CTTCTCGA,0.00137
8,ATCTGGTG,-0.0161
9,CATATAGA,0.178
10,ACGCGATC,-0.00507
11,ATGCCCAA,0.0214
12,GGCTTCAC,-0.22
13,GCCGATGA,-0.055
14,GAGACACC,0.0217
15,CGAGGACA,0.453
16,AGTCTGAT,-0.0321
17,CAACCTAA,0.0393
18,GAAAGGCA,-0.095
19,GGAGTGGA,-0.114
20,TACGTCCA,0.179
21,ACGGCGAA,0.173
22,CATGAAAC,0.0367
23,ATCTGTAC,0.269
24,CCCTGGTA,-0.256
25,GTCGACGA,-0.0442

row,Sequence,PBM E-score
1,TGGACGAA,0.226
2,CGTTGAGC,-0.152
3,ACGCCCGT,-0.0262
4,ATACCATA,0.0438
5,AAATAACT,0.295
6,CGACACCG,-0.0238
7,AGCTATGG,-0.0771
8,CATTAAGG,-0.0214
9,CTGGTGCC,-0.0638
10,GCTCGACC,-0.17
11,CGGACTTC,0.0733
12,TAAAATAA,0.0622
13,ACAGTAAT,0.119
14,CACCTGAA,0.0818
15,CTGCTTTA,0.103
16,GGACAGTA,0.102
17,CTACCGGA,-0.0645
18,TCGGTTCA,-0.047
19,CACCTATC,-0.044
20,AATCTGGC,-0.235
21,GATGCTCA,-0.249
22,ATTCTGCG,0.178
23,AAGTCGCG,0.202
24,AACGAGCG,0.0745
25,CAGAAATG,0.164

row,Sequence,PBM E-score
1,GGGTGAGA,-0.244
2,CGGTTCAG,-0.251
3,GCGCAGAC,0.171
4,CTCCCGAC,-0.0805
5,AAGGCTTC,-0.0824
6,ACGCGATG,-0.0223
7,CCTTTCAA,-0.0699
8,CCAGAAGA,-0.167
9,CACCACAG,0.0197
10,CCCTGACC,-0.238
11,ACCAAACA,0.0314
12,CGACTCTA,-0.196
13,GAGAGATA,0.121
14,CCTACAAG,-0.111
15,ATGATAGA,0.165
16,ACAGCCCC,-0.142
17,CCCTCAAG,-0.197
18,AGGATCAC,-0.0517
19,CTCGGTGA,0.00589
20,CTGACGTA,-0.112
21,GTATAGAA,0.161
22,CAAAGAAC,0.125
23,CCATCAGA,-0.166
24,ACCTCAAC,0.00341
25,AGTGATCG,-0.188

row,Sequence,PBM E-score
1,ATGAACGG,0.0477
2,ACTGTATA,0.236
3,CTAGCGTC,-0.0835
4,AGCGATAT,0.0998
5,GCCCTCCC,-0.308
6,CCAATTGA,0.023
7,CAAAATAC,0.139
8,GTTATTCA,0.142
9,ATGCACTA,-0.0118
10,TAAGTGAA,0.145
11,CGCCACCC,-0.249
12,GGCAAGAC,0.0134
13,GACCCAAA,0.0882
14,ATCACCTG,-0.137
15,ACTCTGCA,0.0249
16,CGTACAGC,-0.123
17,CAGATCGG,-0.0621
18,GCGAGCCA,-0.0799
19,GCTAAAGC,-0.0984
20,CCTAGATC,-0.0304
21,ATTATTGG,-0.0158
22,ATGGACAT,0.484
23,CCTCTTTA,-0.287
24,GTAGTGTA,-0.167
25,ACCATTTC,0.0512

row,Sequence,PBM E-score
1,CCCGTAAG,-0.117
2,AACCCATC,-0.157
3,GGAAACCA,-0.252
4,ACTTGTCG,0.297
5,CAATCAAC,0.0592
6,GGCCTGAA,-0.211
7,AGTTTCTC,0.17
8,AAATGTAA,0.238
9,ACTCTACG,-0.218
10,ACAGCGTA,-0.149
11,GAAGGACA,0.471
12,GATCAGAA,-0.218
13,AGTGACAG,0.0949
14,AAGGGCAA,0.109
15,CATTCAGC,0.0507
16,ATACCCCG,-0.0946
17,GTCGCGCA,0.06
18,CTACCCAA,0.0829
19,CATGTCCA,0.463
20,CTACAAAG,0.0161
21,CAGCTATG,0.0002
22,CATGGACA,0.47
23,GCGTGGCA,-0.137
24,AACAGGCG,-0.287
25,CAGTGTTA,-0.0135

row,Sequence,PBM E-score
1,ATAATGTA,0.139
2,CAGTCATA,0.0625
3,TAGGGCAA,-0.0804
4,GATCGACC,0.126
5,ACCCGACC,0.0169
6,CCGCTTGA,0.0113
7,GTCATGGA,-0.109
8,TAGCCGCA,-0.121
9,AGAAAACA,0.108
10,CGGAAACC,-0.114
11,ACAAATGC,0.304
12,AAAGGACA,0.445
13,AACGGGGT,-0.0951
14,GTAAAGAC,0.12
15,CCCTCAAA,-0.121
16,GTGAGAAC,-0.219
17,CACTGAGC,-0.0239
18,AGGGATCA,-0.166
19,ATTAATTC,0.214
20,AGCAACCC,-0.18
21,GCCCTGAC,-0.211
22,TACACTGA,0.0723
